89 compounds from PMC4336329 (PLoS ONE, 2015) can be followed below.

Hit rate of the full screen: of about 310,000 compounds, about 2,200 (0.71%) showed an effect of 50% or more. Effects have a minus sign here. Some of the results follow.

The experiment deals with human ether-à-go-go-related gene (hERG) potassium channel (human, UniProt Q12809). Put plainly: primary screen, population patch clamp on CHO cells stably expressing hERG.
Sequence of human ether-à-go-go-related gene (hERG) potassium channel (Q12809 whole entry, looked up): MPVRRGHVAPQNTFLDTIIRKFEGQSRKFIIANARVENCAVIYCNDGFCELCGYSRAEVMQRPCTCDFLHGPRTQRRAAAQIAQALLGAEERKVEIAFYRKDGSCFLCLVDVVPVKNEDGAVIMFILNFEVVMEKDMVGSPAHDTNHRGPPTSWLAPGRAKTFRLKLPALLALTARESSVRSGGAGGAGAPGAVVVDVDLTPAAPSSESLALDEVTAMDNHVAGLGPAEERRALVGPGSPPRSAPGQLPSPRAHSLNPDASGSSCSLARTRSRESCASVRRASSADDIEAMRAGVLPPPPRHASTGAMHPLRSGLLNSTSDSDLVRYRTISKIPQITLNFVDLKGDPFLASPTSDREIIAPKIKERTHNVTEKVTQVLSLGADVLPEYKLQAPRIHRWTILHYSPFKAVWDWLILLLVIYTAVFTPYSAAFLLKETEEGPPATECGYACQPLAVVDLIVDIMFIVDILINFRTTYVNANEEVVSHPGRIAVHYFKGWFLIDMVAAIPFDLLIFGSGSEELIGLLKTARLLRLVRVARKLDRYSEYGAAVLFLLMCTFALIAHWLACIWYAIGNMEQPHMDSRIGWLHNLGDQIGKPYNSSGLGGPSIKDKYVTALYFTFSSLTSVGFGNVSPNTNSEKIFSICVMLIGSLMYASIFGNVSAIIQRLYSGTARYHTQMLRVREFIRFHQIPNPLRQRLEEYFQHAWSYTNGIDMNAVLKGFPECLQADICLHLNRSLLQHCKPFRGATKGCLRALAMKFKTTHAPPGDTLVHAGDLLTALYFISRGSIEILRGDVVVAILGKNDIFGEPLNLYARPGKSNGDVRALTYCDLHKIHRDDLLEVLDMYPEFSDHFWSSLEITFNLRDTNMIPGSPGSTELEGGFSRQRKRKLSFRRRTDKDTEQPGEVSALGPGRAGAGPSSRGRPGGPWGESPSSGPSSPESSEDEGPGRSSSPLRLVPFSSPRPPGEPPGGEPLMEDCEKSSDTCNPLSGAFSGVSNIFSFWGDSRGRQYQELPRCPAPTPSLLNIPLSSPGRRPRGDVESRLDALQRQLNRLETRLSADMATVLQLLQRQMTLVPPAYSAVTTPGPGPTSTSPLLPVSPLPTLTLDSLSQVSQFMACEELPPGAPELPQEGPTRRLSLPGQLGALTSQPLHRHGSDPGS
As to `CC(C)(C)n1nnnc1C(c1cccnc1)N1CCN(c2cccc(C(F)(F)F)c2)CC1.Cl` (centres unmarked), the “hERG current change (%, negative = inhibition) at 1uM” value turned out to be 2.7%.
The same measure for `Cc1ccccc1C(=O)NCC(=O)O`: 9.67%.
To `Cc1ccc2c(c1)CCCN2C(=O)CCc1nc2ccccc2c(=O)[nH]1` belongs 3.44%; to `COc1ccc(NC(=O)N2CCCc3cc(C)ccc32)c(OC)c1`, 14.5%; to `C/C(=N\NC(=O)c1c[nH]c2ccccc12)c1ccc2c(c1)OCO2`, 8.18%.
To `Cc1ccc(CNC(=O)COc2ccc(C)nc2[N+](=O)[O-])cc1` belongs -3.03%; to `COc1ccccc1N1CCN(CC(=O)Nc2ccccc2C(=O)NCCc2ccccc2)CC1`, 37.6%; to `C=CCN(C(=O)Nc1ccc(OC)cc1)c1nnc(-c2ccncc2)s1`, -2.3%.
`O=C(OCc1ccccc1)c1ccc(Br)o1`: the “hERG current change (%, negative = inhibition) at 1uM” value amounted to 0.851%.
To `Cc1ccc(S(=O)(=O)N2CCC(=O)N(CCOCc3ccc(Cl)cc3)CC2)cc1` belongs 2.76%.
To `O=C(O)c1cc(NCc2ccccc2)ccc1N1CCOCC1` belongs 2.9%; to `COc1ccc2c(c1)C(NC(C)=O)C(=O)N2CCc1ccccc1` (centres unmarked), 3.02%; to `Cc1ccc(-c2nnc(SCC(=O)Nc3cccc(C(=O)N4CCOCC4)c3)n2C)cc1`, -2.71%.
The same measure for `Cc1sc2nc[nH]c(=O)c2c1-c1ccc(Cl)cc1`: 13.8%; for `CCCC(c1nnnn1Cc1ccco1)N1CCC(C(N)=O)CC1.Cl` (centres unmarked): -4.52%.
On to `COC(=O)c1c(C)oc(C)c1S(=O)(=O)N1CCCCC1`, for which the “hERG current change (%, negative = inhibition) at 1uM” value turned out to be 8.55%.
As for `Cn1cccc1CNC(=S)Nc1cc(F)cc(F)c1`, the “hERG current change (%, negative = inhibition) at 1uM” value is 14.4%.
On to `O=C(CN(C(=O)Cn1nnc(-c2cccs2)n1)c1ccc2c(c1)OCCO2)NCC1CCCO1` (centres unmarked), for which the “hERG current change (%, negative = inhibition) at 1uM” value was -3.21%.
The same measure for `CC1(c2ccc3c(c2)OCCO3)NC(=O)N(CC(=O)c2ccc[nH]2)C1=O` (centres unmarked): 7.08%; for `O=C(/C=C/c1ccc(Br)cc1)N1CCN(Cc2ccccc2)CC1`: 11%; for `CC#CCCC(=O)N1C=Cc2ccccc2C1C#N` (centres unmarked): 0.723%.
The same measure for `COc1ccc(C(=O)N2CCC(=O)N(C(CO)Cc3ccccc3)CC2)cc1` (centres unmarked): 1.01%; for `COc1cccc(CN(C)C(=O)C23CC4CC(CC(NC(C)=O)(C4)C2)C3)c1OC`: 1.91%; for `Nc1nn(-c2ccccc2)c(N)c1N=Nc1cccc(F)c1`: 18.7%.
To `O=C(NC(=S)Nc1cc([N+](=O)[O-])ccc1O)C1CC1` belongs 4.72%; to `CCN1C(=O)c2cccc3c(S(=O)(=O)Nc4ccc(OC)cc4OC)ccc1c23`, 1.86%; to `CCCOC(=O)c1c(NC(=O)/C=C/c2cnn(C)c2C)sc(C(=O)OC)c1C`, 12.5%.
As to `CCCOc1ccc(-c2c(C(=O)N/N=C/c3ccsc3)nnn2-c2nonc2N)cc1`, the “hERG current change (%, negative = inhibition) at 1uM” value was determined as 14.1%.
As for `Cc1cccc2nc(-c3cccnc3)c(Nc3ccccc3)n12`, the “hERG current change (%, negative = inhibition) at 1uM” value came to 1.54%.
As to `CCOc1ccccc1NC(=O)c1ccc(NC(=O)c2ccco2)cc1`, the “hERG current change (%, negative = inhibition) at 1uM” value was -5.44%.
On to `COC(=O)c1sccc1NC(=O)c1ccc(C(C)C)cc1`, for which the “hERG current change (%, negative = inhibition) at 1uM” value is recorded as 15.8%.
To `Cc1csc(SCC(=O)Nc2ccc3c(c2)OCCO3)n1` belongs 16%; to `O=c1[nH]c(Cc2ccc(Cl)cc2)nc2ccccc12`, 13.9%.
Regarding `COc1ccc(CN(C)S(=O)(=O)c2c(C)noc2C)cc1OC`, the “hERG current change (%, negative = inhibition) at 1uM” value worked out at 14.2%.
With `Cc1ccccc1-n1c(C)nc2ccccc2c1=O`, the “hERG current change (%, negative = inhibition) at 1uM” value was 5.04%.
`COc1ccccc1-n1ccnc(SCC(=O)NCCc2ccccc2)c1=O`: the “hERG current change (%, negative = inhibition) at 1uM” value is recorded as 14.1%.
The same measure for `Cc1ccc(N2CC(C(=O)NCc3n[nH]c(=O)c4ccccc34)CC2=O)cc1` (centres unmarked): -8.02%; for `COc1ccc(-c2oc3ncnc(NCCN4CCOCC4)c3c2-c2ccc(OC)cc2)cc1`: 9.03%.
Regarding `COc1ccc(-c2noc3c2-c2nc(C4CCCCC4)sc2CC3)cc1`, the “hERG current change (%, negative = inhibition) at 1uM” value was found to be 6.93%.
For `COc1ccc(-c2nc3n(n2)C(c2cccnc2)C(C(N)=O)=C(C)N3)cc1` (centres unmarked), the “hERG current change (%, negative = inhibition) at 1uM” value is given as 3.69%.
`CCc1cc2cccc(C)c2nc1SCC(=O)Nc1nonc1C`: the “hERG current change (%, negative = inhibition) at 1uM” value is reported as 0.701%.
To `O=[N+]([O-])c1ccc(Cl)cc1NCCCN1CCOCC1` belongs 3.62%.
For `COc1cccc(NC(=O)c2nn(C)c(C(=O)Nc3cccc(OC)c3)c2[N+](=O)[O-])c1`, the “hERG current change (%, negative = inhibition) at 1uM” value was found to be 11.5%.
Consider `O=C(COc1cc(F)ccc1[N+](=O)[O-])Nc1ccc(N2CCOCC2)cc1`, for which the “hERG current change (%, negative = inhibition) at 1uM” value is reported as 11.6%.
`CCC(C)(C)NC(=O)C(c1cccc(OC)c1)N(C(=O)c1ccn[nH]1)c1cccc(OC)c1` (centres unmarked): the “hERG current change (%, negative = inhibition) at 1uM” value came out at 7.27%.
Turning to `O=C(CSc1nnc(COc2ccc(Cl)cc2)o1)N1CCOCC1`, the “hERG current change (%, negative = inhibition) at 1uM” value is given as 2.14%.
As for `O=C(NC1CCCCCCC1)c1ccc(CNc2c(N3CCOCC3)c(=O)c2=O)cc1`, the “hERG current change (%, negative = inhibition) at 1uM” value worked out at 9.8%.
Regarding `C=CCOc1ccc(CNC(C)(C)CO)cc1OC.Cl`, the “hERG current change (%, negative = inhibition) at 1uM” value stood at 15%.
For `Cc1ccc(CNC(=O)CS(=O)Cc2nc(-c3ccccc3F)oc2C)cc1` (centres unmarked), the “hERG current change (%, negative = inhibition) at 1uM” value is 22%.
`Cc1cccc(NC(=O)CSc2ncnc3sc(C)c(C)c23)n1`: the “hERG current change (%, negative = inhibition) at 1uM” value worked out at 3.7%.
The same measure for `Cc1ccc(C(=O)NCCN2C3=NC[C@@H](Cc4ccccc4)N3C[C@H]2Cc2ccc(O)cc2)cc1Br`: -4.33%.
Turning to `COc1ccc(C2SCC(=O)N2c2ccccc2)cc1` (centres unmarked), the “hERG current change (%, negative = inhibition) at 1uM” value worked out at 12.2%.
To `O=C(NCc1cccc(Cl)c1)C1CCN(c2nnc(N3CCCC3=O)s2)CC1` belongs 3.63%; to `Cc1cc(C)n(C(=O)/C=C/c2cccs2)n1`, 13.6%.
To `CC(=O)Nc1ccc(CN2CCc3c([nH]c4ccccc34)C2C(C)(C)C)cc1` (centres unmarked) belongs 11.6%; to `Cc1ccc(S(=O)(=O)N2CCC(=O)N(C(COCc3cccc(C)c3)Cc3ccccc3)CC2)cc1` (centres unmarked), 11%.
In the case of `O=C(CNCc1ccccc1Cl)Nc1ccc2c(c1)OCCO2.O=C(O)C(=O)O`, the “hERG current change (%, negative = inhibition) at 1uM” value is on record as -6.19%.
Consider `CCN1CCN(c2cc(C)c3cc(NC(=S)NCc4cccs4)ccc3n2)CC1`, for which the “hERG current change (%, negative = inhibition) at 1uM” value is -3.12%.
To `COc1ccc(NC(=O)CN(C)C(=O)c2cccc(S(=O)(=O)N3CCCc4ccccc43)c2)cc1` belongs -24.1%; to `FC(F)(F)c1nnc2ccc(Sc3ccccn3)nn12`, 14.2%.
The same measure for `CCn1c(=O)c2c(cnn2C)c2ccccc21`: 9.08%; for `Cc1nnc(SCCn2c(N3CCCC(C)C3)nc3c2c(=O)[nH]c(=O)n3C)s1` (centres unmarked): 12.2%.
As for `Cc1c(C)n(Cc2ccccc2)c2ncnc(NN)c12`, the “hERG current change (%, negative = inhibition) at 1uM” value came out at 10.8%.
The same measure for `CC(C)(C)n1nnnc1C(c1cccs1)N1CCN(Cc2ccc3c(c2)OCO3)CC1` (centres unmarked): 0.865%; for `CCOc1ccccc1NS(=O)(=O)c1cccs1`: 7.8%; for `CN(C)CCn1c(=S)[nH]c2ccc(Cl)cc2c1=O`: -1.99%.
To `COc1cccc(NC(=S)NN=C2CCC(C(C)(C)C)CC2)c1` (centres unmarked) belongs 6.45%.
With `COC(=O)Cc1c(C)nc2nc(-c3ccc(OC)cc3)[nH]n2c1=O`, the “hERG current change (%, negative = inhibition) at 1uM” value worked out at 4.73%.
With `COC(=O)c1ccc2c(=O)n(CCCCCC(=O)NCc3ccccn3)c(=O)[nH]c2c1`, the “hERG current change (%, negative = inhibition) at 1uM” value worked out at 6.49%.
On to `COc1ccc(CCNC(=O)c2sc(=S)n(C)c2N)cc1`, for which the “hERG current change (%, negative = inhibition) at 1uM” value was determined as 16%.
In the case of `COc1ccc(NC(=O)[C@H](Cc2c[nH]c3ccccc23)NC(=O)[C@@H]2Cc3ccccc3CN2)cc1`, the “hERG current change (%, negative = inhibition) at 1uM” value turned out to be 2.88%.
Take `O=C(CCC(=O)Nc1ccccc1Cl)NNC(=S)Nc1ccccc1C(F)(F)F`: the “hERG current change (%, negative = inhibition) at 1uM” value is reported as 15.8%.
As to `COc1ccc(CN2C(=O)CCC2(C)C(=O)NCc2cccnc2)c(OC)c1` (centres unmarked), the “hERG current change (%, negative = inhibition) at 1uM” value was -1.98%.
In the case of `O=S1(=O)CC(N2CCOCC2)c2ccccc21` (centres unmarked), the “hERG current change (%, negative = inhibition) at 1uM” value turned out to be 12.7%.
To `COC(=O)C1=C(c2ccc(S(C)(=O)=O)cc2)C[C@@H]2CC[C@H]1N2C(=O)N1CCCC1` belongs 8.15%.
To `Cc1cc2nnc(SCC(=O)N3CCN(c4ccccc4)CC3)n2c(N)n1` belongs 14.1%.
The same measure for `O=C(C1CCN(C2CCN(CC3CC=CCC3)CC2)CC1)N1CCOCC1` (centres unmarked): 6.95%; for `OC(COc1ccc(Cl)cc1)CSc1ccccn1` (centres unmarked): 16.1%.
In the case of `COC(=O)c1[nH]c2cccc(OC)c2c1NC(=O)CCN1CC(C)CC(C)C1` (centres unmarked), the “hERG current change (%, negative = inhibition) at 1uM” value is given as -4.14%.
As to `CNCCc1c[nH]c2ccc(O)cc12.O=C(O)C(=O)O`, the “hERG current change (%, negative = inhibition) at 1uM” value turned out to be 19.8%.
On to `CCC(/C=N/NC(=O)C1COc2ccccc2O1)CC` (centres unmarked), for which the “hERG current change (%, negative = inhibition) at 1uM” value turned out to be 8.97%.
For the compound `Cc1csc2nc(CNS(=O)(=O)c3ccc4c(c3)OCCO4)cn12`, the “hERG current change (%, negative = inhibition) at 1uM” value stood at 5.04%.
Consider `CCOC(=O)C1CCCN(C(=O)c2cc3c(=O)n4ccccc4nc3s2)C1` (centres unmarked), for which the “hERG current change (%, negative = inhibition) at 1uM” value is reported as 5.53%.
Turning to `CC(C)CC(=O)CN1C(=O)C2(OCCO2)c2ccccc21`, the “hERG current change (%, negative = inhibition) at 1uM” value amounted to 19.1%.
The same measure for `O=C(Nc1ccc(Cl)c(Cl)c1)N(CCCN1CCOCC1)Cc1cccs1`: -41.8%; for `Cc1ccccc1NS(=O)(=O)c1ccc(C(=O)N2CCC2)cc1`: 12.3%.
`Cc1c(Cl)c(C(F)(F)F)nn1CC(=O)NCc1ccccc1`: the “hERG current change (%, negative = inhibition) at 1uM” value is given as 14.2%.
The same measure for `COc1cccc(NC(=O)c2ccccc2N2C(=O)C3C4C=CC(C5CC45)C3C2=O)c1` (centres unmarked): 12.1%; for `c1ccc(C2[C@H]3CN(CC4CCCCC4)[C@H](c4ccccc4)C34CC2(c2ccccc2)C4)cc1` (some centres unmarked): 9.77%.
